Experimental data: article PMC6919601, “Identification of Plasmodium dipeptidyl aminopeptidase allosteric inhibitors by high throughput screening” (PLoS ONE, 2019)
Values joined by “and” are separate entries in the source; they are usually repeats but may differ in a detail not shown here. Identical values can stand only once. About 230 (0.21%) of roughly 110,000 compounds showed an effect of 50% or more. The list shows a part of the results.

Target: DPAP1 (Plasmodium falciparum, UniProt Q8IIJ9)
Assay: primary screen, percent inhibition; read by cleavage of a fluorogenic dipeptide substrate; higher = more effect of the substance
Design: species or system P. falciparum D10 trophozoite lysates; single well
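Also: 30 min substrate incubation versus DMSO and 10 µM JCP410 controls.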

Sequence of DPAP1 (Q8IIJ9 whole entry, looked up): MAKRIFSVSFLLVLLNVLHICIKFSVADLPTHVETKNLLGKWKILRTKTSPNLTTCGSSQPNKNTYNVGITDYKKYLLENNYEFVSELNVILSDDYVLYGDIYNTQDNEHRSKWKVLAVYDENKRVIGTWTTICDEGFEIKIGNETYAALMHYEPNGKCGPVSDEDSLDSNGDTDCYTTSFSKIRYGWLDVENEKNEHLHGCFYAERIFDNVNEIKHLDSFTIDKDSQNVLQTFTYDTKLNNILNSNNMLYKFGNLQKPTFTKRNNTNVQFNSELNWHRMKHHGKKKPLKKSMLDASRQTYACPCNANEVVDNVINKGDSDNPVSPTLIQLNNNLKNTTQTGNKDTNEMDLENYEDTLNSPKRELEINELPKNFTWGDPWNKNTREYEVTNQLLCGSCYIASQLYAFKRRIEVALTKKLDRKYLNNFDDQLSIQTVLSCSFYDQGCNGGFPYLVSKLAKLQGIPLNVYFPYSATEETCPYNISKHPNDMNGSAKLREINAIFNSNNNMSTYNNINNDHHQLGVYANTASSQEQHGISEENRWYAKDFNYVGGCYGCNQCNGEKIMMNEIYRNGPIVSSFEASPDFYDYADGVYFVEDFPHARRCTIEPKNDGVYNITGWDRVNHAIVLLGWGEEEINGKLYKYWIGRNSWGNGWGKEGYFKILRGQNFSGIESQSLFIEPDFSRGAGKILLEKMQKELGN

Row | SMILES | % Inhibition @ 10 uM
1 | CCN1C=C(Cc2ccc(F)cc2)C2=C(C1)C(c1ccc(F)cc1)C(C#N)=C(N)O2 (centres unmarked) | 4.32%
2 | N#Cc1c(NC(=O)c2ccc(Cl)c(S(=O)(=O)N3CCOCC3)c2)sc2c1CCCC2 | -3.26%
3 | O=C(NC1CCCCC1)c1ccc(Br)c(S(=O)(=O)N2CCCCC2)c1 | 5.43%
4 | COc1cc(CNc2ccc3c(c2)OCCO3)ccc1OCC(=O)NC1CCCCC1 | -1.63%
5 | COc1ccc(/C=C2\S/C(=N/c3ccc(C(=O)O)cc3)N(C)C2=O)cc1O | -3.23%
6 | CCOc1ccc(CN(C(=O)Cc2coc3ccc(C)cc23)C2CCS(=O)(=O)C2)cc1 (centres unmarked) | 2.62%
7 | Brc1c(CSc2nc3ccccc3[nH]2)nc2ccccn12 | -5.41%
8 | COc1cc(CNC(C)C23CC4CC(CC(C4)C2)C3)ccc1OCC(=O)NC(C)(C)C (centres unmarked) | -1.43%
9 | CCCCn1c(=N)c(C#N)cc2c(=O)n3cccc(C)c3nc21 | -2.83%
10 | CCC(Cc1ccccc1)NC(=O)C1CCCN(c2nnc(-n3cccc3)s2)C1 (centres unmarked) | -2.25%
11 | CCOC(=O)c1cccc2c1S(=O)(=O)CCC2=O | -1.51%
12 | Cc1cc(C2(c3ccc(O)c(C)c3)OC(=O)c3ccccc32)ccc1O | 0.238%
13 | Cc1ccc(Cn2c(=O)n(Cc3ccc4c(c3)OCO4)c(=O)c3oc4ccccc4c32)cc1 | 7.33%
14 | C#CCn1c(Cc2ccc(OC)cc2)nc2ccccc21 | 2.73%
15 | COc1ccc(OC)c(C2=NOC(C(=O)Nc3cc(C)on3)C2)c1 (centres unmarked) | -7.71%
16 | Cc1ccc(CNC(=O)CN(C)S(=O)(=O)c2ccc(-c3cc(C)no3)cc2)cc1 | -3.47%
17 | Cc1cccc(OCC(=O)Nc2sc(C)c(C)c2C(N)=O)c1 | -1.61%
18 | O=C(Cn1c2ccccc2c2cnnc(O)c21)N1CCCCC1 | 1.38%
19 | COc1ccccc1CNC(=O)Nc1cccs1 | -1.6%
20 | CN(C)c1ccc(Nc2nc(-c3ccccn3)cs2)cc1 | 2.65%
21 | Nc1cc(=O)nc(SCCOc2ccccc2)n1-c1ccccc1 | 2.08%
22 | COC(=O)CCC(=O)NC(C)c1ccccc1 (centres unmarked) | -2.51%
23 | Cc1noc2ncnc(NCc3cccnc3)c12 | -4.4%
24 | N/C(=N\c1ccccc1)Nc1nc(O)c2c(n1)CCC2 | -1.98%
25 | CC(C)c1ccccc1OCC(=O)Nc1ccccc1Br | 1.08%

Row | SMILES | % Inhibition @ 10 uM
26 | CCOC(=O)N1CCC(NC(=O)CS(=O)(=O)Cc2nc(-c3ccc(OC)cc3)oc2C)CC1 | -0.138%
27 | Cc1ccc(C)c(CS(=O)(=O)c2cn(CC(=O)N3CCCC3)c3ccccc23)c1 | 2.73%
28 | COc1ccc(/C=C/c2nn3c(-c4ccco4)nnc3s2)cc1 | 4.94%
29 | COc1ccc(C2C(C#N)=C(N)N(c3ccccc3)C3=C2C(=O)CC(C)(C)C3)cc1OC (centres unmarked) | 3.72%
30 | CN1CCCCC/C1=N/C(=S)CN1CCCC1=S | 8.26%
31 | O=C(Nc1ccc(CN2CCOCC2)cc1)c1ccc(F)cc1 | 1.83%
32 | Cc1ccc(NC2=NC(=O)C(CC(=O)Nc3ccccc3)S2)cc1C (centres unmarked) | -1.95%
33 | CCn1c(C)c(CCC(=O)NCCC2=NCc3ccccc32)c(=O)n2nc(-c3ccccc3OC)cc12 | 1.26%
34 | CC(=O)NC1(C(F)(F)F)C(=O)Nc2c1c(=O)[nH]c(=O)n2-c1ccc(F)cc1 (centres unmarked) | -3.34%
35 | Oc1nnc(COc2ccccc2)c2nnn(Cc3ccccc3)c12 | -3.08%
36 | CC1CC(O)(c2ccccc2)C(C)CN1C(C)(C)C (centres unmarked) | 0.605%
37 | O=C(c1ccc(C(=O)N2CCN(c3ccccc3F)CC2)cc1)N1CCN(c2ccccc2F)CC1 | 2.01%
38 | COc1ccc(CN2CCN(Cc3ccccn3)CC2)c(OC)c1 | -0.231%
39 | CC(C)C[C@H](NC(=O)c1ccc(-c2ccccc2C(F)(F)F)cc1)C(=O)NCC#N | 0.174%
40 | O=C(O)CCCNS(=O)(=O)/C=C/c1ccccc1 | -5.38% and -0.615%
41 | CCOC(=O)c1c(CN2CCN(C)CC2)n(-c2ccccc2)c2ccc(O)cc12 | 2.17%
42 | OCC1CCCN(C2CCN(CCc3ccccc3)CC2)C1 (centres unmarked) | -0.0908%
43 | COC(=O)C1=C(C)NC(=O)C1(NC(=O)c1cccc(C)c1)C(F)(F)F (centres unmarked) | -1.52%
44 | CCOc1ccccc1NC(=O)c1ccc(C)cc1 | -2.6%
45 | CC(=O)Nc1cccc(C(=O)N[C@@H](CC(C)C)C(=O)NCC#N)c1 | 4.63%
46 | CCO/C(O)=C(\C#N)c1cc(-c2ccccc2)nc(-c2ccccc2)n1 | -1.72%
47 | Cc1ccc2nsnc2c1S(=O)(=O)NC1CC1 | 3.73%
48 | Cc1c(CC(=O)NCCc2ccccc2)c(=O)oc2cc(O)ccc12 | 4.13%
49 | Cc1cn(CNC(=O)c2ccccc2)c(=O)[nH]c1=O | 1.92%
50 | Cc1ccc(C(=O)c2cnc3ccccc3c2N2CCN(C)CC2)cc1 | -0.743%

Row | SMILES | % Inhibition @ 10 uM
51 | CCn1c(C(=O)N2CCC(C(=O)N3CCN(c4ccccn4)CC3)CC2)cc2sccc21 | -3.35%
52 | CC(=O)Nc1ccc(NC(=O)CN(Cc2ccccc2)S(C)(=O)=O)cc1 | 11.6%
53 | COc1ccc(NC(=O)c2cccnc2Cl)cc1Cl | 4.57%
54 | Cc1ccc(CN2CNc3c(c(=O)n(C)c(=O)n3C)C2)cc1 | -2.88%
55 | c1ccc(C2CCC(N3CCN(c4ccccc4)CC3)CC2)cc1 (centres unmarked) | -6%
56 | CC(C)(C)P(=O)(O)c1ccccc1 | -6.29%
57 | Oc1cccc(CN2CCN(Cc3ccccc3)CC2)c1 | 1.96%
58 | Cc1nc(NCc2ccccc2)c2sc3nc4c(cc3c2n1)COC(C)(C)C4 | -0.386%
59 | Cc1ccc(S(=O)(=O)N(CC(=O)NCc2ccco2)c2ccc(Cl)cc2)cc1 | 4.96%
60 | COc1ccc(-c2cc(-c3nc4c5c(ncn4n3)CCC5)[nH]n2)cc1 | 1.08%
61 | COc1cc(-c2[nH]nc3c2C(c2c[nH]nc2-c2ccc(F)cc2)C(C#N)=C(N)O3)cc(OC)c1OC (centres unmarked) | 2.32%
62 | CCOc1ccc(-c2cc(C(=O)NCc3ccccn3)c3ccccc3n2)cc1 | -0.519%
63 | OC1CCN(Cc2cccc(Cl)c2Cl)C1 (centres unmarked) | -5.31%
64 | CCc1nnc2c(NCCc3ccc(Cl)cc3)nc3ccccc3n12 | -1.59%
65 | O=C(COc1ccccc1)Nc1ccc(S(=O)(=O)N2CCCCCC2)cc1 | -11.1%
66 | COc1ccc(S(=O)(=O)N2CCN(c3ccc4nnc(-c5ccc(F)cc5)n4n3)CC2)cc1 | -3.08%
67 | CC(C)C[C@H](NC(=O)OCc1ccc(Br)cc1)C(=O)NCC#N | 3.19%
68 | O=C(Nc1ccc(S(=O)(=O)NC2CCCCC2)cc1)C(F)(F)F | 0.528%
69 | O=C1C(Cl)=C(Nc2cccc(Cl)c2)C(=O)N1c1ccccc1 | 8.79%
70 | CC(C)(C)NC(=O)CN(Cc1ccccc1)S(=O)(=O)c1ccc(Br)cc1 | 0.324%
71 | COc1cc(CN2CCN(c3ccc(Cl)cc3)CC2)ccc1O | 2.47%
72 | CC[C@H](NC(=O)[C@H](CC1CCCCC1)/N=C(\C)NS(=O)(=O)c1ccccc1)C(=O)c1nc2ccccc2o1 | 3.1%
73 | CCS(=O)(=O)NCc1cn2ccsc2n1 | 0.953%
74 | O=c1cc(CO)oc(CN2CCN(c3ccccn3)CC2)c1O | 0.221%
75 | CNCC(=O)N1CCc2cc(OC)c(OC)cc2C1C (centres unmarked) | -2.58%

Row | SMILES | % Inhibition @ 10 uM
76 | Cc1cccc(NC(=O)C23CC4CC(CC(C4)C2)C3)n1 | -1.28%
77 | CCCn1c(-c2ccc(S(=O)(=O)N(C)C)cc2)cs/c1=N\c1ccccc1 | 0.324%
78 | CCCc1cc(O)n2c(n1)nc1ccccc12 | 0.221%
79 | Cc1nc2ccn(Cc3cccnc3)c(=O)c2cc1C(=O)NCCCc1ccccc1 | -0.835%
80 | CCCOc1ccc2oc(=O)c3c(c2c1)CCCN3C(=O)CN1CCN(c2ncccn2)CC1 | 11.4%
81 | Cc1cccc(OCC(=O)Nc2ccc(C(C)C)cc2)c1 | 0.247%
82 | O=C(Nc1ccc2nc(SCC(=O)N3CCOCC3)sc2c1)c1ccc(Cl)cc1Cl | -2.07%
83 | CC(C)(C)C(CN1CCCC1)OC(=O)c1ccccc1 (centres unmarked) | -2.63%
84 | O=C(CSc1nc2ccccc2[nH]1)NCCC12CC3CC(CC(C3)C1)C2 | 0.563%
85 | O=S(=O)(c1ccc(S(=O)(=O)N(Cc2ccc(F)cc2)CC2CCCO2)cc1)N1CCCCC1 (centres unmarked) | 6.7%
86 | CC(C)(C)N(Cc1ccc([N+](=O)[O-])cc1)C(=O)c1ccc([N+](=O)[O-])cc1 | 4.93%
87 | CC(CC(NC(=O)OCc1ccccc1)C(=O)NCC#N)c1ccccc1 (centres unmarked) | -1.41%
88 | O=[N+]([O-])c1ccccc1/C=C/CN(CCc1ccccc1)Cc1ccccc1 | -5.26%
89 | CC(C)=NOC(=O)CCS(=O)(=O)c1nc(-c2cccs2)cc(C(F)(F)F)n1 | -0.631%
90 | NC(=O)c1c(N)sc2c1CCCCCCCCCC2 | -0.0619%
91 | O=C(Cn1cc(SCc2cccc(C(F)(F)F)c2)c2ccccc21)N1CCOCC1 | 0.0147%
92 | N#CC1=C(N)OC2=C(C(=O)CCC2)C1c1cccc(Cl)c1 (centres unmarked) | -1.44%
93 | C=CCn1c(Cc2c(C)[nH]c3ccccc23)nnc1SCC(=O)NC12CC3CC(CC(C3)C1)C2 | 0.238%
94 | CC(C)C[C@H](NC(=O)OCc1ccccc1)C(=O)NC1CCOC1O (some centres unmarked) | 5.05%
95 | COc1ccc(C2C=C(c3ccc(Br)cc3)N=C(S)N2)cc1 (centres unmarked) | 1.54%
96 | Cc1nc2cc(NS(=O)(=O)c3cccc4cccnc34)ccc2s1 | -0.624%
97 | Fc1ccc(C2=CCN(Cc3ccc(-c4ccc(Cl)cc4)o3)CC2)cc1 | 1.57%
98 | Cc1ccc(C(=O)CCNc2ccc(Br)cc2)o1 | -7.34%
